# Results published in the supplement of paper PMC8728848.
# The other results are listed elsewhere or left out.
# Legend:
# Assay in all cases: glycan array binding signal (z-score within array); higher = stronger binding
# Conditions in all cases: glycan notation: IUPAC condensed, linker removed
# [1] = biological target: Fuc(a1-2)[GalNAc(a1-3)]Gal(b1-4)[Fuc(a1-3)]GlcNAc
# Summary of the method: (§1)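 Glycan array data came from 3228 arrays in the Consortium for Functional Glycomics database, and only arrays with an available protein sequence were kept. Glycan names were put into IUPAC-condensed notation, and columns mapping to the same glycan were averaged. The binding signal is a within-array Z-score, averaged across arrays of one protein sequence run at different concentrations or buffers and across linkers. A negative Z-score can be read as non-binding.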
# [2] = biological target: Fuc(a1-2)[GalNAc(a1-4)]Gal(b1-4)GlcNAc
# Summary of the method: as §1
# [3] = biological target: Fuc(a1-3)GlcNAc
# Summary of the method: as §1
# [4] = biological target: Fuc(a1-3)[Gal(b1-4)]Glc6S
# Summary of the method: as §1
# [5] = biological target: Fuc(a1-3)[Gal(b1-4)]GlcNAc
# Summary of the method: as §1
# [6] = biological target: Fuc(a1-3)[Gal(b1-4)]GlcNAc(b1-3)Gal(b1-3)[Fuc(a1-4)]GlcNAc
# Summary of the method: as §1
# [7] = biological target: Fuc(a1-3)[Gal(b1-4)]GlcNAc(b1-4)Gal(b1-4)[Fuc(a1-3)]GlcNAc
# Summary of the method: as §1
# [8] = biological target: Fuc(a1-3)[Gal(b1-4)]GlcNAc(b1-4)Gal(b1-4)[Fuc(a1-3)]GlcNAc(b1-4)Gal(b1-4)[Fuc(a1-3)]GlcNAc
# Summary of the method: as §1
# [9] = biological target: Fuc(a1-3)[Gal(b1-4)]GlcNAc6S
# Summary of the method: as §1
# [10] = biological target: Fuc(a1-3)[Gal3S(b1-4)]Glc
# Summary of the method: as §1
# [11] = biological target: Fuc(a1-3)[Gal3S(b1-4)]Glc6S
# Summary of the method: as §1
# [12] = biological target: Fuc(a1-3)[Gal3S(b1-4)]GlcNAc
# Summary of the method: as §1
# [13] = biological target: Fuc(a1-3)[Gal3S(b1-4)]GlcNAc6S
# Summary of the method: as §1
# [14] = biological target: Fuc(a1-3)[GalNAc(b1-4)]Gal(b1-4)GlcNAc
# Summary of the method: as §1
# [15] = biological target: Fuc(a1-4)GlcNAc
# Summary of the method: as §1
# [16] = biological target: Fuc(b1-3)GlcNAc
# Summary of the method: as §1
# [17] = biological target: Gal(a1-2)Gal
# Summary of the method: as §1
# [18] = biological target: Gal(a1-3)Gal
# Summary of the method: as §1
# [19] = biological target: Gal(a1-3)Gal(b1-3)Glc
# Summary of the method: as §1
# [20] = biological target: Gal(a1-3)Gal(b1-3)GlcNAc
# Summary of the method: as §1
# [21] = biological target: Gal(a1-3)Gal(b1-4)GlcNAc
# Summary of the method: as §1
# [22] = biological target: Gal(a1-3)Gal(b1-4)[Fuc(a1-3)]GalNAc
# Summary of the method: as §1
# [23] = biological target: Gal(a1-3)GlcNAc
# Summary of the method: as §1
# [24] = biological target: Gal(a1-3)[Gal(a1-4)]Gal(b1-4)GlcNAc
# Summary of the method: as §1
# [25] = biological target: Gal(a1-4)Gal(b1-4)Gal
# Summary of the method: as §1
# [26] = biological target: Gal(a1-4)Gal(b1-4)GalNAc
# Summary of the method: as §1
# [27] = biological target: Gal(a1-4)GlcNAc
# Summary of the method: as §1
# [28] = biological target: Gal(a1-6)Glc
# Summary of the method: as §1
# [29] = biological target: Gal(b1-2)Gal
# Summary of the method: as §1
# [30] = biological target: Gal(b1-3)Gal
# Summary of the method: as §1
# [31] = biological target: Gal(b1-3)GalNAc
# Summary of the method: as §1
# [32] = biological target: Gal(b1-3)GalNAc(b1-3)Gal(a1-4)Gal(b1-4)Glc
# Summary of the method: as §1
# [33] = biological target: Gal(b1-3)GalNAc(b1-3)Gal(b1-4)Glc
# Summary of the method: as §1
# [34] = biological target: Gal(b1-3)GalNAc(b1-3)Gal(b1-4)GlcNAc
# Summary of the method: as §1
# [35] = biological target: Gal(b1-3)GalNAc(b1-4)Gal(b1-4)Glc
# Summary of the method: as §1
# [36] = biological target: Gal(b1-3)GalNAc(b1-4)[Neu5Ac(a2-3)]Gal(b1-4)Glc
# Summary of the method: as §1
# [37] = biological target: Gal(b1-3)GlcNAc(b1-3)Gal(b1-3)GlcNAc
# Summary of the method: as §1
binder,measurement,setting,value
"IDGF2 (Drosophila melanogaster), Q9V3D4 (protein) MKAWIWFTFVACLFAASTEAASNLVCYYDSSSYTREGLGKLLNPDLEIALQFCSHLVYGYAGLRGENLQAYSMNENLDIYKHQFSEVTSLKRKYPHLKVLLSVGGDHDIDPDHPNKYIDLLEGEKVRQIGFIRSAYDLVKTYGFDGLDLAYQFPKNKPRKVHGDLGLAWKSIKKLFTGDFIVDPHAALHKEQFTALVRDVKDSLRADGFLLSLTVLPNVNSTWYFDIPALNGLVDFVNLATFDFLTPARNPEEADYSAPIYHPDGSKDRLAHLNADFQVEYWLSQGFPSNKINLGVATYGNAWKLTKDSGLEGVPVVPETSGPAPEGFQSQKPGLLSYAEICGKLSNPQNQFLKGNESPLRRVSDPTKRFGGIAYRPVDGQITEGIWVSYDDPDSASNKAAYARVKNLGGVALFDLSYDDFRGQCSGDKYPILRAIKYRLHHHHHH",glycan array binding signal (z-score),[1],-0.323
same,glycan array binding signal (z-score),[2],-0.307
same,glycan array binding signal (z-score),[3],-0.251
same,glycan array binding signal (z-score),[4],0.706
same,glycan array binding signal (z-score),[5],-0.463
same,glycan array binding signal (z-score),[6],0.936
same,glycan array binding signal (z-score),[7],-0.206
same,glycan array binding signal (z-score),[8],-0.319
same,glycan array binding signal (z-score),[9],-0.054
same,glycan array binding signal (z-score),[10],0.261
same,glycan array binding signal (z-score),[11],0.173
same,glycan array binding signal (z-score),[12],0.026
same,glycan array binding signal (z-score),[13],0.168
same,glycan array binding signal (z-score),[14],-0.341
same,glycan array binding signal (z-score),[15],-0.384
same,glycan array binding signal (z-score),[16],0.017
same,glycan array binding signal (z-score),[17],-0.136
same,glycan array binding signal (z-score),[18],-0.457
same,glycan array binding signal (z-score),[19],0.367
same,glycan array binding signal (z-score),[20],-0.286
same,glycan array binding signal (z-score),[21],-0.382
same,glycan array binding signal (z-score),[22],-0.365
same,glycan array binding signal (z-score),[23],-0.42
same,glycan array binding signal (z-score),[24],-0.273
same,glycan array binding signal (z-score),[25],-0.196
same,glycan array binding signal (z-score),[26],-0.481
same,glycan array binding signal (z-score),[27],-0.122
same,glycan array binding signal (z-score),[28],0.002
same,glycan array binding signal (z-score),[29],0.184
same,glycan array binding signal (z-score),[30],0.071
same,glycan array binding signal (z-score),[31],-0.108
same,glycan array binding signal (z-score),[32],-0.511
same,glycan array binding signal (z-score),[33],-0.183
same,glycan array binding signal (z-score),[34],-0.446
same,glycan array binding signal (z-score),[35],-0.283
same,glycan array binding signal (z-score),[36],-0.271
same,glycan array binding signal (z-score),[37],-0.411
